Assay results reported in PMC12820563, “FoxP3 forms a head-to-head dimer in vivo and stabilizes its multimerization on adjacent microsatellites”.
This is one part of the list.

target: T1, MBP-FoxP1dN (Mus musculus, UniProt P58462 326-579); assay: PD-seq (MBP pull-down with sequencing); 20 mM Tris-HCl pH 7.5, 100 mM NaCl, 1.5 mM MgCl2, 0.4 uM protein, 0.1 uM dsDNA library, 30 min, room temperature, amylose pull-down; high values mean tight binding; details: protein: recombinant; tags: His6-MBP; chain copies: 2; dsDNA, one strand shown
T1 sequence: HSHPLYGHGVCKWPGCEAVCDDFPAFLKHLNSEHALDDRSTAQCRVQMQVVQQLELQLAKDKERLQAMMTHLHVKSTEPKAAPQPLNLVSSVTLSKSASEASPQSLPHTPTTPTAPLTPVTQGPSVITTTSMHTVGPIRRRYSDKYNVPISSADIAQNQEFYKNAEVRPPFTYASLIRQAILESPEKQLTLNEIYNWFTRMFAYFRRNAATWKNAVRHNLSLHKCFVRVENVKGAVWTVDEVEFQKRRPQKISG
Procedure, shortened: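 E. coli-expressed mouse FoxP3 or FoxP1 fragment, N-terminus removed and tagged with His6-MBP, was used at 0.4 µM against 0.1 µM of a Klenow-filled degenerate double-stranded DNA library. After 30 min at room temperature in Tris pH 7.5 buffer with NaCl and MgCl2, complexes were pulled down on amylose resin and washed three times. Binding is pull-down over input reads-per-million enrichment from pooled replicates of the proteinase K-released, PCR-barcoded, Illumina-sequenced DNA.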

Compared with “GATGATTGTTCTCCCAGCTGATGAATTTCTCAGCTCGAGTAAACAAATTTTCCTAATCTTTCTGTTCAAGCGCCATCTAC”, “GATGATTGTTCTCCCAGCTGATGAATTTACCGGCTCGAGTAAACAAATTTTCCTAATCTTTCTGTTCAAGCGCCATCTAC” is higher in binding signal: 0.749 RPM ratio (pull-down/input) for the first, 1 RPM ratio (pull-down/input) for the second.

Compared with “GATGATTGTTCTCCCAGCTGATGAATTAAGGAAGTCGAGTAAACAAATTTTCCTAATCTTTCTGTTCAAGCGCCATCTAC”, “GATGATTGTTCTCCCAGCTGATGAATTGAAGGTCTCGAGTAAACAAATTTTCCTAATCTTTCTGTTCAAGCGCCATCTAC” is higher in binding signal: 0.789 RPM ratio (pull-down/input) for the first, 0.792 RPM ratio (pull-down/input) for the second.

Going from “GATGATTGTTCTCCCAGCTGATGAATTAGATCCCTCGAGTAAACAAATTTTCCTAATCTTTCTGTTCAAGCGCCATCTAC” to “GATGATTGTTCTCCCAGCTGATGAATTGATCTGATCGAGTAAACAAATTTTCCTAATCTTTCTGTTCAAGCGCCATCTAC”, the binding signal rises from 0.816 RPM ratio (pull-down/input) to 0.968 RPM ratio (pull-down/input).

First: GATGATTGTTCTCCCAGCTGATGAATTGTCATACTCGAGTAAACAAATTTTCCTAATCTTTCTGTTCAAGCGCCATCTAC
Second: GATGATTGTTCTCCCAGCTGATGAATTTCGCCTCTCGAGTAAACAAATTTTCCTAATCTTTCTGTTCAAGCGCCATCTAC
The binding signal of the first is higher: 1.1 RPM ratio (pull-down/input) for the first, 0.919 RPM ratio (pull-down/input) for the second.

First: GATGATTGTTCTCCCAGCTGATGAATTTCCCCGGTCGAGTAAACAAATTTTCCTAATCTTTCTGTTCAAGCGCCATCTAC
Second: GATGATTGTTCTCCCAGCTGATGAATTATAGCGATCGAGTAAACAAATTTTCCTAATCTTTCTGTTCAAGCGCCATCTAC
The binding signal of the first is lower: 0.731 RPM ratio (pull-down/input) for the first, 0.975 RPM ratio (pull-down/input) for the second.

Going from “GATGATTGTTCTCCCAGCTGATGAATTCTCTTCATCGAGTAAACAAATTTTCCTAATCTTTCTGTTCAAGCGCCATCTAC” to “GATGATTGTTCTCCCAGCTGATGAATTAAATGCATCGAGTAAACAAATTTTCCTAATCTTTCTGTTCAAGCGCCATCTAC”, the binding signal rises from 0.886 RPM ratio (pull-down/input) to 1.69 RPM ratio (pull-down/input).

First: GATGATTGTTCTCCCAGCTGATGAATTCCGTAGCTCGAGTAAACAAATTTTCCTAATCTTTCTGTTCAAGCGCCATCTAC
Second: GATGATTGTTCTCCCAGCTGATGAATTGAAGCAGTCGAGTAAACAAATTTTCCTAATCTTTCTGTTCAAGCGCCATCTAC
The binding signal of the first is lower: 0.761 RPM ratio (pull-down/input) for the first, 0.823 RPM ratio (pull-down/input) for the second.

First: GATGATTGTTCTCCCAGCTGATGAATTGTATAGTTCGAGTAAACAAATTTTCCTAATCTTTCTGTTCAAGCGCCATCTAC
Second: GATGATTGTTCTCCCAGCTGATGAATTGGCGCGATCGAGTAAACAAATTTTCCTAATCTTTCTGTTCAAGCGCCATCTAC
The binding signal of the first is higher: 1.18 RPM ratio (pull-down/input) for the first, 0.908 RPM ratio (pull-down/input) for the second.

Going from “GATGATTGTTCTCCCAGCTGATGAATTCCCGTCTTCGAGTAAACAAATTTTCCTAATCTTTCTGTTCAAGCGCCATCTAC” to “GATGATTGTTCTCCCAGCTGATGAATTTTCCTTCTCGAGTAAACAAATTTTCCTAATCTTTCTGTTCAAGCGCCATCTAC”, the binding signal rises from 0.799 RPM ratio (pull-down/input) to 0.887 RPM ratio (pull-down/input).

Compared with “GATGATTGTTCTCCCAGCTGATGAATTGGTTTCATCGAGTAAACAAATTTTCCTAATCTTTCTGTTCAAGCGCCATCTAC”, “GATGATTGTTCTCCCAGCTGATGAATTAACAGTATCGAGTAAACAAATTTTCCTAATCTTTCTGTTCAAGCGCCATCTAC” is lower in binding signal: 1.08 RPM ratio (pull-down/input) for the first, 0.997 RPM ratio (pull-down/input) for the second.

Compared with “GATGATTGTTCTCCCAGCTGATGAATTGCACAACTCGAGTAAACAAATTTTCCTAATCTTTCTGTTCAAGCGCCATCTAC”, “GATGATTGTTCTCCCAGCTGATGAATTATGTACTTCGAGTAAACAAATTTTCCTAATCTTTCTGTTCAAGCGCCATCTAC” is higher in binding signal: 1.25 RPM ratio (pull-down/input) for the first, 1.26 RPM ratio (pull-down/input) for the second.

Compared with “GATGATTGTTCTCCCAGCTGATGAATTTAGTGCTTCGAGTAAACAAATTTTCCTAATCTTTCTGTTCAAGCGCCATCTAC”, “GATGATTGTTCTCCCAGCTGATGAATTAGTCCGCTCGAGTAAACAAATTTTCCTAATCTTTCTGTTCAAGCGCCATCTAC” is lower in binding signal: 0.994 RPM ratio (pull-down/input) for the first, 0.791 RPM ratio (pull-down/input) for the second.

Compared with “GATGATTGTTCTCCCAGCTGATGAATTGCCTTAATCGAGTAAACAAATTTTCCTAATCTTTCTGTTCAAGCGCCATCTAC”, “GATGATTGTTCTCCCAGCTGATGAATTTTGCCTTTCGAGTAAACAAATTTTCCTAATCTTTCTGTTCAAGCGCCATCTAC” is lower in binding signal: 1.08 RPM ratio (pull-down/input) for the first, 0.949 RPM ratio (pull-down/input) for the second.

Compared with “GATGATTGTTCTCCCAGCTGATGAATTAGGACCTTCGAGTAAACAAATTTTCCTAATCTTTCTGTTCAAGCGCCATCTAC”, “GATGATTGTTCTCCCAGCTGATGAATTCAGTGAATCGAGTAAACAAATTTTCCTAATCTTTCTGTTCAAGCGCCATCTAC” is higher in binding signal: 0.839 RPM ratio (pull-down/input) for the first, 0.944 RPM ratio (pull-down/input) for the second.

First: GATGATTGTTCTCCCAGCTGATGAATTCGAATTCTCGAGTAAACAAATTTTCCTAATCTTTCTGTTCAAGCGCCATCTAC
Second: GATGATTGTTCTCCCAGCTGATGAATTGGTCTGATCGAGTAAACAAATTTTCCTAATCTTTCTGTTCAAGCGCCATCTAC
The binding signal of the first is lower: 0.733 RPM ratio (pull-down/input) for the first, 0.895 RPM ratio (pull-down/input) for the second.

Going from “GATGATTGTTCTCCCAGCTGATGAATTCTCCCAGTCGAGTAAACAAATTTTCCTAATCTTTCTGTTCAAGCGCCATCTAC” to “GATGATTGTTCTCCCAGCTGATGAATTCGCGAGCTCGAGTAAACAAATTTTCCTAATCTTTCTGTTCAAGCGCCATCTAC”, the binding signal falls from 0.832 RPM ratio (pull-down/input) to 0.793 RPM ratio (pull-down/input).
